From paper PMC12136788
The other results are listed elsewhere or left out.

B1: chr16:87831719:87831834:-|3pUTR|ENSG00000103257|msi1_unk|total|mutant (ssRNA)
RNA: GGGAGUUCUACAGUCCGACGAUCCCUGCGUUUGGAGGCCCCUGGGCUCUCACCCAGUCCCCACCCGCCUGCAGAGAGGGAACCCGGGCACCCCUUGUUUCUGUUGUUCCCGUGAAUUUUUUUCGCUAUGGGAGGCAGCCGAGGCAACAGAGGAUUGAGCAUCA
B2: chr14:106421710:106422018:-|CDS|ENSG00000211959|control|control|control (ssRNA)
RNA: GGGAGUUCUACAGUCCGACGAUCCUAUUAUAGUGGGAGCACCUACUACAACCCGUCCCUCAAGAGUCGAGUCACCAUAUCCGUAGACACGUCCAAGAACCAGUUCUCCCUGAAGCUGAGCUCUGUGACCGCCGCAGACACGGCCAACAGAGGAUUGAGCAUCA
B3: chr5:136977529:136977630:-|3pUTR|ENSG00000152377|msi1|total|mutant (ssRNA)
RNA: GGGAGUUCUACAGUCCGACGAUCACAAGCCAUCUCUUUCAUUUCUGCUUGAAGCCCCUUGGCUGCAGCAAUCCUGUCUGCCACCGGUUUCUUCCUUCCUUACCUACUCAAGGGCUUUUUCUAAGGCAUGCACACAUAUCUCCUCAACAGAGGAUUGAGCAUCA
B4: chr15:30360565:30362292:-|three_prime_utr|ENSG00000166664|control|control|control (ssRNA)
RNA: GGGAGUUCUACAGUCCGACGAUCACAACUCCAGUGUUCCCUUCUGGCUGUCAGUCGUGUUGCUUACGGUUUCUUUGUUACUUUAGGUAGUAGAAUCUCAGCACUUUGUUUCAUAUUCUCAGAUGGGCUGAUAGAUAUCCUUGGCAACAGAGGAUUGAGCAUCA
B5: chr10:84150713:84150851:+|CDS|ENSG00000165678|unk|FALSE|unique (ssRNA)
RNA: GGGAGUUCUACAGUCCGACGAUCUCUUCCACCUACCACCGUGGCUGGUGCCACUCUUUACUCAGUGGCAAUGUACGGUGGAUUAGUUCUUUUCAGCAUGUUCCUUCUGUAUGAUACCCAGAAAGUAAUCAAGCGUGCAGAAGUCAACAGAGGAUUGAGCAUCA
B6: chr22:42060953:42061055:-|CDS|ENSG00000198951|unk|total|mutant (ssRNA)
RNA: GGGAGUUCUACAGUCCGACGAUCCCAGGAAAAAUCUCUCAUCGAAGUGUACAUGCGGCCUCUGUCCAACAAGGCCCGCGCCUCCGUCUUCUUCAGCUGCAGGACCGAUAUGCCUUAUCGCUACCACUCCUCCCUUGGCCAGCUCAACAGAGGAUUGAGCAUCA
B7: chr1:109310645:109310811:-|3pUTR|ENSG00000134243|msi1|total|mutant (ssRNA)
RNA: GGGAGUUCUACAGUCCGACGAUCAGGGUAACGGGGCUGGCCUGGCAUCCGUCAUUAUUCCGUUUCCAGGCCAACCAUCCAGACCGAGAUUCCCUCUUUCCUUUGAGCAGUGCUCUCAAGAGCUCCGUGCCUGUCCACAAUGACCAACAGAGGAUUGAGCAUCA
B8: chr19:51078814:51078951:-|CDS|ENSG00000129437|control|control|control (ssRNA)
RNA: GGGAGUUCUACAGUCCGACGAUCUCUCUGCAAUGCGUGAACAUCAACAUCUCCCCGGAUGAGGUGUGCCAGAAGGCCUAUCCUAGAACCAUCACGCCUGGCAUGGUCUGUGCAGGAGUUCCCCAGGGCGGGAAGGACUCUUGUCAACAGAGGAUUGAGCAUCA
B9: chr17:76291014:76294021:-|CDS|ENSG00000129646|control|control|control (ssRNA)
RNA: GGGAGUUCUACAGUCCGACGAUCAGAAUGAGUUCUAGUUUCCCCACGGCAGUGGAGACAUUUCAUCUGAUGGGAGAGCUCAGUAGCCUCUAUGUGGGGCUAAAGGAGAGUAUGAAGGAUCUGGAUGAGGAGCAGGCCGGCCAACAACAGAGGAUUGAGCAUCA
B10: chr4:42087128:42087229:+|3pUTR|ENSG00000014824|msi1|FALSE|unique (ssRNA)
RNA: GGGAGUUCUACAGUCCGACGAUCAUUUUGUAUAAUAUAGUUCAUACUGUGUCUGUGAGUUUCUUCAGUUACAAAUGGGCAUUUAGUAUAGUUAUAUUGACUAUAACAUGUAAGUAAAUAGCUUUCUACUGACCCUAAGUUAUCCAACAGAGGAUUGAGCAUCA
B11: chr9:83661418:83661519:-|3pUTR|ENSG00000135018|msi1|total|mutant (ssRNA)
RNA: GGGAGUUCUACAGUCCGACGAUCUACCGUUGGGUGACCAGAUUUUGUCCUGCAUCUGUCCAGUUUAUUUGCUUUUUAAACAUCCGCCUAUGGCCGUAAUUUAUGCCGAAUAAAAGCAUUAAAAAGAAGCAAAUCAUUUGCACUCAACAGAGGAUUGAGCAUCA
B12: chr16:3436009:3436110:-|3pUTR|ENSG00000167981|unk|total|mutant (ssRNA)
RNA: GGGAGUUCUACAGUCCGACGAUCAUUAAAAUGAAGGCUCUUGCUAAAGUUAUUUUAAUUUUGUUUACGCCGUUUCUGACUUUCCGAAGGAGGAGAAUUUAUUUAUAUUUUGCCAGUUCUGCAGACAUAUCCCGGAAAGUAAAUCAACAGAGGAUUGAGCAUCA
B13: chr4:138171744:138171845:-|3pUTR|ENSG00000151012|msi1|total|mutant (ssRNA)
RNA: GGGAGUUCUACAGUCCGACGAUCAGGAGUCAGUUAUUUUUAUUCAUAUAUUUCCGCAUAUUCGAACUAAUUUCUAAGAAAUUCCGUUAUAACUCUAUGCCGUUACCGAAAGUGAAUAUGCAGUUAUUCUAUGAGUCGCACAAUCAACAGAGGAUUGAGCAUCA
B14: ENSG00000106683:stop:overlap|stop_codon|ENSG00000106683|stop_codon|NA|stop_codon (ssRNA)
RNA: GGGAGUUCUACAGUCCGACGAUCGCUCUGCCCGGCAGAAACCUGUCUUCGCAAGGACCUGGGUCGCUCUGAGUCCCUCCGCGUAGUCUGCCGGCCACACCGCAUCUUCCGGCCGUCGGACCUCAUCCACGGGGAGGUGCUGGGCAACAGAGGAUUGAGCAUCA

target: MSI1 full-length (mouse, UniProt Q61474 1-362); experiment: nsRBNS (natural sequence RNA bind-n-seq); RBNS binding buffer (assumed for nsRBNS): 25 mM Tris pH 7.5, 150 mM KCl, 3 mM MgCl2, 0.01% Triton X-100, 500 ug/ml BSA, 20 U/ml SUPERase-In, 4 C; UNK is unkempt and MSI1 is Musashi-1; names of the RNAs are library labels; protein concentration not given here; high values mean tight binding
UniProt Q61474, sequence (Q61474 whole entry): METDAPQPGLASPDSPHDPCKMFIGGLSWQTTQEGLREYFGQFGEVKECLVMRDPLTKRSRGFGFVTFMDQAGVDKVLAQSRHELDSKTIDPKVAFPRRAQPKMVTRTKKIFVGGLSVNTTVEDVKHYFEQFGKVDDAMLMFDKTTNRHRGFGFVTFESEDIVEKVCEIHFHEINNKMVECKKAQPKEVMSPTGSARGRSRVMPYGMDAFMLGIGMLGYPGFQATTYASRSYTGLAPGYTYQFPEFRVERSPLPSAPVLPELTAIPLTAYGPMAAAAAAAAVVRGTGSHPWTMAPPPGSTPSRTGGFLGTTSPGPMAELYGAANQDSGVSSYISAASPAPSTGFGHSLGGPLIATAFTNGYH

Row | Binder | binding signal
1 | B1 | 0.373 enrichment R
2 | B2 | 0.635 enrichment R
3 | B3 | 0.518 enrichment R
4 | B4 | 1.43 enrichment R
5 | B5 | 0.465 enrichment R
6 | B6 | 0.589 enrichment R
7 | B7 | 0.465 enrichment R
8 | B8 | 0.491 enrichment R
9 | B9 | 0.533 enrichment R
10 | B10 | 2.94 enrichment R
11 | B11 | 0.203 enrichment R
12 | B12 | 0.68 enrichment R
13 | B13 | 0.833 enrichment R
14 | B14 | 0.548 enrichment R
